In article PMC7409549, “A time-resolved interaction analysis of Bem1 reconstructs the flow of Cdc42 during polar growth” (Life Science Alliance, 2020):
Results are given in words; binding and its absence hold for the method and conditions named. In cells and extracts the contact can be indirect. Some entries that bind do so weakly or less than the wild type. For some assays here: Sequences can lack the tags named with a protein.

How the values were obtained:
[1] = target: T1, Bem1-mCherry-Cub-RGFP (S. cerevisiae) (UniProt P29366); assay: split reporter; SPLIFF as a9, measured at the bud neck from completion of acto-myosin ring contraction until abscission (PCDIII)
T1 sequence: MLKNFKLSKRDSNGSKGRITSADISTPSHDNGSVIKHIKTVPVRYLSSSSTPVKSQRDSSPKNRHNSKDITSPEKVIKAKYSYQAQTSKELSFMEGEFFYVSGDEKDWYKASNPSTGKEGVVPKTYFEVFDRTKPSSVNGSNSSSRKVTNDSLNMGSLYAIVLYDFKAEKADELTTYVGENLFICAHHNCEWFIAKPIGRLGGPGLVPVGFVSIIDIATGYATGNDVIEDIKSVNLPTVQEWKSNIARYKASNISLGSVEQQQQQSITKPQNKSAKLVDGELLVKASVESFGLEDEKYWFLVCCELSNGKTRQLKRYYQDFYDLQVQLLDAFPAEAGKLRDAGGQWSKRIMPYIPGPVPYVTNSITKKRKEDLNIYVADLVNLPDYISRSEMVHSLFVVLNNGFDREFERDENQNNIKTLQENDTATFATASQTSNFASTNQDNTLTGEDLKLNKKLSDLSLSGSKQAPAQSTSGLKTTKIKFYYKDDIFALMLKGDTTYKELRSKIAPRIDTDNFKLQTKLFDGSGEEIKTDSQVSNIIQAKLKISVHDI

[2] = target: T2, Fir1CRU (S. cerevisiae) (UniProt P40020); assay: split reporter; split-ubiquitin (Split-Ub): CRU and Nub fusions co-expressed in yeast cells, spotted in 10-fold serial dilutions on medium with 1 mg/ml 5-FOA and copper, 30°C; growth = interaction
T2 sequence: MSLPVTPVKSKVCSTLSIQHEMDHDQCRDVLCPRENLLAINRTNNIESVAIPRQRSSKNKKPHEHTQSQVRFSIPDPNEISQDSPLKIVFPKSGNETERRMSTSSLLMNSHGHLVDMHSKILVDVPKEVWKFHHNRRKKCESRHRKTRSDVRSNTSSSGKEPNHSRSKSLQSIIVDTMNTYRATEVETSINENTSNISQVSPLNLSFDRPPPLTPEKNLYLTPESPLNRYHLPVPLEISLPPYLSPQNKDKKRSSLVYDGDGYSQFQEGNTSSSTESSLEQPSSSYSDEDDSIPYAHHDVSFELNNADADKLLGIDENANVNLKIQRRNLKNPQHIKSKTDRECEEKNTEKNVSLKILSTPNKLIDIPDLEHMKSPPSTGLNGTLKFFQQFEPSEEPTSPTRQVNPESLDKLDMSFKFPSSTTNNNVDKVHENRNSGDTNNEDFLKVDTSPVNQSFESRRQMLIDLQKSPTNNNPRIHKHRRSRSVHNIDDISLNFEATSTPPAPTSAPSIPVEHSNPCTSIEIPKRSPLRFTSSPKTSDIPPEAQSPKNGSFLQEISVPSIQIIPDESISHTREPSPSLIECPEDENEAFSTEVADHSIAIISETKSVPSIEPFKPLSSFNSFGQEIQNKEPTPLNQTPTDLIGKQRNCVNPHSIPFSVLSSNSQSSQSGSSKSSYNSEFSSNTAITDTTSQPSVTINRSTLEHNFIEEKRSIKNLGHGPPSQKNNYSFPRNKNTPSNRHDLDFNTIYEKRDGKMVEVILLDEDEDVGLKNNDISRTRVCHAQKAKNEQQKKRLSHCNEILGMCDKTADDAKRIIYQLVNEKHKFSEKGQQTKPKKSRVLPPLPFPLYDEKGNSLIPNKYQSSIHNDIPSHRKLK

[3] = target: T3, Bud6_(1-364)CRU (S. cerevisiae) (UniProt P41697); assay: as above
T3 sequence: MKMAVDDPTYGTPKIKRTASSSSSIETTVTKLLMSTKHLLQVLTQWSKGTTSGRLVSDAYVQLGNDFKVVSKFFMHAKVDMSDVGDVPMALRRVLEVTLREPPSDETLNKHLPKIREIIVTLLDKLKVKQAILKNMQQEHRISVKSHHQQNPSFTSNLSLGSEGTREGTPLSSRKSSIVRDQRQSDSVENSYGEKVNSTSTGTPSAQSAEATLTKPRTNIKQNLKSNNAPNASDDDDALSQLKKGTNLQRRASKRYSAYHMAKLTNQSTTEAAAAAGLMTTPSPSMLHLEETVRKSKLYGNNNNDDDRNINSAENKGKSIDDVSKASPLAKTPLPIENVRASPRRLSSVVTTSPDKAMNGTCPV

[4] = target: T1, Bem1-mCherry-Cub-RGFP (S. cerevisiae); assay: split reporter; SPLIFF as a9, measured at the cell front during bud site assembly and bud growth (PCDII)
[5] = target: T4, Nba1CRU (S. cerevisiae) (UniProt Q08229); assay: split reporter; split-ubiquitin (Split-Ub): a-cells with a Cub-RUra3 (CRU) fusion mated with α-cells with Nub fusions (P_CUP1), diploids as quadruplets on SD medium with 1 mg/ml 5-FOA and copper; growth = interaction; detects direct and indirect interactions
T4 sequence: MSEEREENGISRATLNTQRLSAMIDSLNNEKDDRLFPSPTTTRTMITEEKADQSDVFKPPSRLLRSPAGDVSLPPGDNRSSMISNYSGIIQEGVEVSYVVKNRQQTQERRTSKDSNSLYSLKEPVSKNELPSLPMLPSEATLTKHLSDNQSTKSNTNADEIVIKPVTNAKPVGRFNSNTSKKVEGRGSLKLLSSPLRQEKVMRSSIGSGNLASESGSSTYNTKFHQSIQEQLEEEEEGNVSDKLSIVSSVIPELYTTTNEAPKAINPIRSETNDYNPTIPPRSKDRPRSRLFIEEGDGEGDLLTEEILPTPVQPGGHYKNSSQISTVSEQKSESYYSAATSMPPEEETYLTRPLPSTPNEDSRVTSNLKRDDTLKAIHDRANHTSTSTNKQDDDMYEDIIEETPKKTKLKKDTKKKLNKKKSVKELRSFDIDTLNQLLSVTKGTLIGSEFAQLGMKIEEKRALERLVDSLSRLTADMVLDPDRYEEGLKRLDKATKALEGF

[6] = target: T5, Bem1-Cub-RUra3 (S. cerevisiae) (UniProt P29366); assay: as above
T5 sequence: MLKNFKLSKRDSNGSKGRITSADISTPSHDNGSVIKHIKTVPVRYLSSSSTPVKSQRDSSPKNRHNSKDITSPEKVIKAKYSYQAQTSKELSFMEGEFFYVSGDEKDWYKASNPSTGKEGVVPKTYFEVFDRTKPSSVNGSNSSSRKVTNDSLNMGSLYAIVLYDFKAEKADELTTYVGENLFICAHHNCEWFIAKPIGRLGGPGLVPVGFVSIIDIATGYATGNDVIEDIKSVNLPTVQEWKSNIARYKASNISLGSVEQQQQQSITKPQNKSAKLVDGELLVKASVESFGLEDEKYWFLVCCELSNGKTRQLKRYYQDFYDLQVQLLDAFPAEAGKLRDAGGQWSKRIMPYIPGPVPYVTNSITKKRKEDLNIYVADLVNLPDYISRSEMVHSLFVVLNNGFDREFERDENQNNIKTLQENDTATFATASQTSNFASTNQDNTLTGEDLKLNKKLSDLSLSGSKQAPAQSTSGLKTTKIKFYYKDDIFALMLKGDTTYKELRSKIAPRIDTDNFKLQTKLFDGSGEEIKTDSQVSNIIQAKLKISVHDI

[7] = target: T6, Bem1WK-Cub-RUra3 (S. cerevisiae) (UniProt P29366); assay: as above
T6 sequence: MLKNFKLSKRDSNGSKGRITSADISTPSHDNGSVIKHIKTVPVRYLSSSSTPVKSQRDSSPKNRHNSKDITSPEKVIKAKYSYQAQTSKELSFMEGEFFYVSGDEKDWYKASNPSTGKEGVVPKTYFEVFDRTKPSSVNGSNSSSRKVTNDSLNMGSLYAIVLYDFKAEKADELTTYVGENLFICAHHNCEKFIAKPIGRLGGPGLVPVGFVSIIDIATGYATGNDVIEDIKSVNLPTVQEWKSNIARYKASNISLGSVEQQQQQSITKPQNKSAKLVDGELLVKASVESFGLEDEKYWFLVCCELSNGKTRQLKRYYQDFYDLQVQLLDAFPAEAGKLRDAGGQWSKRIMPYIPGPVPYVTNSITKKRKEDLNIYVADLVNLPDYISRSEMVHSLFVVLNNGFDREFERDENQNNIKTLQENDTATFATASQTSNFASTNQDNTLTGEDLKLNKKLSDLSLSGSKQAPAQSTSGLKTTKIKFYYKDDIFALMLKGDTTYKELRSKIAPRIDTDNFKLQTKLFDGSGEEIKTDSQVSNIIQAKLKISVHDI

[8] = target: T1, Bem1-mCherry-Cub-RGFP (S. cerevisiae); assay: split reporter; SPLIFF (split-ubiquitin with mCherry-Cub-RGFP, CCG): a-cells with the CCG fusion mated with α-cells with Nub-HA fusions; conversion of CCG to CC measured by time-lapse microscopy at the site of cell fusion (PCDI); a significant positive slope = interaction

- binding [1]: binds
- binding [2]: binds
- binding [3]: binds
- binding [4]: binds
- binding [5]: binds
- binding [6]: binds
- binding [7]: no binding
- binding [8]: binds
B1: Nub-Boi1 (protein, UniProt P38041 1-980)
chain: MSLEGNTLGKGAKSFPLYIAVNQYSKRMEDELNMKPGDKIKVITDDGEYNDGWYYGRNLRTKEEGLYPAVFTKRIAIEKPENLHKSPTQESGNSGVKYGNLNDSASNIGKVSSHQQENRYTSLKSTMSDIDKALEELRSGSVEQEVSKSPTRVPEVSTPQLQDEQTLIQEKTRNEENTTHDSLFSSTADLNLSSESLKNISKSNISTKSLEPSSESVRQLDLKMAKSWSPEEVTDYFSLVGFDQSTCNKFKEHQVSGKILLELELEHLKELEINSFGIRFQIFKEIRNIKSAIDSSSNKLDADYSTFAFENQAAQLMPAATVNRDEIQQQISSKCNKLSSESSDRKSSSVTTELQRPSSVVVNPNFKLHDPAEQILDMTEVPNLFADKDIFESPGRAPKPPSYPSPVQPPQSPSFNNRYTNNNARFPPQTTYPPKNKNPTVYSNGLIPNSSTSSDNSTGKFKFPAMNGHDSNSRKTTLTSATIPSINTVNTDESLPAISNISSNATSHHPNRNSVVYNNHKRTESGSSFVDLFNRISMLSPVKSSFDEEETKQPSKASRAVFDSARRKSSYGHSRDASLSEMKKHRRNSSILSFFSSKSQSNPTSPTKQTFTIDPAKMTSHSRSQSNSYSHARSQSYSHSRKHSLVTSPLKTSLSPINSKSNIALAHSETPTSSNNKEAVSQPSEGKHKHKHKHKSKHKHKNSSSKDGSSEEKSKKKLFSSTKESFVGSKEFKRSPSELTQKSTKSILPRSNAKKQQTSAFTEGIRSITAKESMQTADCSGWMSKKGTGAMGTWKQRFFTLHGTRLSYFTNTNDEKERGLIDITAHRVLPASDDDRLISLYAASLGKGKYCFKLVPPQPGSKKGLTFTEPRVHYFAVENKSEMKAWLSAIIKATIDIDTSVPVISSYATPTIPLSKAQTLLEEARLQTQLRDAEEEEGRDQFGWDDTQNKRNSNYPIEQDQFETSDYLESSAFEYPGGRL
